{
  "source": "PubChem BioAssay AID588855",
  "about": "(National Center for Advancing Translational Sciences (NCATS), 2011)",
  "note": "“And” between values parts separate entries of the source, which are not always exact repeats. Equal entries are not always repeated. Hit rate of the full screen: of about 410,000 compounds, about 5,000 (1.2%) were called active. Inconclusive means that the source gave no clear call. Such entries were picked first, then a sample of the others. Calls come from the whole dose curve; as a rule, active = well fitted inhibition curve with a large enough effect; inconclusive = small, poorly fitted or top-dose-only effect; inactive = no such curve, though single readings can be large or run the other way. Potencies of inconclusive entries are doubtful fits and often do not repeat. % is set by controls: 0 for no effect and ±100 for the full control effect; potency is the fitted concentration of half-maximal effect; tags give direction and shape of the fitted curve.",
  "data": [
    {"assay": "qHTS for Inhibitors of TGF-b; note: nearly all actives have a fitted effect of over 65% in size", "details": "HepG2 CAGA-GFP TGF-b/SMAD3 reporter, GFP fluorescence, 18 h, TGF-beta stimulated, 500 pg/mL final; series mostly up to 46.1 µM; activity, negative = inhibition: at the top concentration", "procedure,_shortened": "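GFP signal (ex488/em500-530) from TGF-beta-stimulated HEPG2 CAGA-GFP cells, 500 pg/mL final, 18 h at 37 degrees C in DMEM plus 1% FBS, normalized to unstimulated and DMSO-stimulated controls.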", "values": [
      {"smiles": "CCC(C(=O)NCCC(C)C)N(Cc1ccccc1Cl)C(=O)c1snc(C(N)=O)c1N", "note": "(stereo unspecified)", "Potency": "inconclusive: 7.08 µM [inhibitor, full curve, poor fit]"},
      {"smiles": "CC(=NNC(=S)N1CCCCC1)c1ccccn1", "Potency": "active: 0.631 µM"},
      {"smiles": "CCCc1cc(=O)oc2c3c(ccc12)OCN(Cc1ccccc1OC)C3", "activity, negative = inhibition": "inactive: 4.63%"},
      {"smiles": "Nc1c(C(=O)NCc2ccccc2)c2nc3ccccc3nc2n1CCCN1CCOCC1", "Potency": "inconclusive: 35.5 µM [inhibitor, single point]"},
      {"smiles": "CN(C(=O)Cn1nc(Cc2cccnc2)c2ccccc2c1=O)c1cccc(C(F)(F)F)c1", "Potency": "inconclusive: 10 µM [inhibitor, single point]"},
      {"smiles": "CN(C)c1nc(N)nc(-c2ccco2)n1", "Potency": "inconclusive: 35.5 µM [inhibitor, single point]"},
      {"smiles": "CC(C)c1csc(CN2CCN(Cc3ccc(F)cc3)C(CCO)C2)n1", "note": "(stereo unspecified)", "Potency": "active: 3.55 µM"},
      {"smiles": "CCOC(=O)N1CCN(C(=O)c2ccc(Cl)c(S(=O)(=O)N3CCOCC3)c2)CC1", "activity, negative = inhibition": "inactive: 1.48%"},
      {"smiles": "CSc1ccc(CNC(=O)C(C)n2nc(C)c3c(C)n(-c4ccccc4)nc3c2=O)cc1", "note": "(stereo unspecified)", "Potency": "inconclusive: 20 µM [inhibitor, single point]"},
      {"smiles": "CCC(=O)OCc1cc(=O)n2nc(C3CC3)sc2n1", "activity, negative = inhibition": "inactive: -0.198%"},
      {"smiles": "Cc1ccc(NC(=O)CN2C(=O)COc3ccc(S(=O)(=O)N4CCCCCC4)cc32)c(C)c1", "Potency": "inconclusive: 0.631 µM [inhibitor, full curve]"},
      {"smiles": "COc1ccccc1-c1cc(NC=O)c2ncc(-c3ccc(S(C)(=O)=O)cc3)n2c1", "activity, negative = inhibition": "inactive: -8.05%"},
      {"smiles": "Cc1ccc(/C=N/Nc2ccc3ccccc3n2)o1", "activity, negative = inhibition": "inactive: -30.8%"},
      {"smiles": "Cc1cc(C)c(C)c(N=Nc2nc3ccccc3n2C)c1C", "Potency": "inconclusive: 35.5 µM [inhibitor, single point]"},
      {"smiles": "OCCCn1c(C2CCCN2c2nc(-c3ccc(F)cc3)cs2)nc2cc(C(F)(F)F)ccc21", "note": "(stereo unspecified)", "Potency": "inconclusive: 7.08 µM [inhibitor, partial curve]"},
      {"smiles": "O=C(Nc1c(C(=O)Nc2cccc3ccccc23)cnn1-c1ccccc1)c1ccco1", "Potency": "inconclusive: 35.5 µM [inhibitor, single point]"},
      {"smiles": "COc1ccc(CN2C(=O)c3ccccc3C2C(=O)NC2CCCC(C)C2C)c(OC)c1", "note": "(stereo unspecified)", "Potency": "inconclusive: 2.51 µM [inhibitor, full curve, poor fit]"},
      {"smiles": "CCCCC1CCC(C(=O)N2CC(=O)Nc3ccc(Br)cc3C2c2ccc(F)cc2)CC1", "note": "(stereo unspecified)", "Potency": "inconclusive: 11.2 µM [inhibitor, single point]"},
      {"smiles": "Cc1ccnc(NC(=O)Nc2ccc3c(c2)N(C)C(=O)CS3)c1", "Potency": "inconclusive: 3.16 µM [inhibitor, partial curve]"},
      {"smiles": "CC(C)CN(CC(C)C)C(=O)c1cccc(S(=O)(=O)N2CCc3ccccc32)c1", "Potency": "inconclusive: 11.2 µM [inhibitor, partial curve]"},
      {"smiles": "CN(C)c1ccc(-c2nnn(CC(=O)Nc3ccccc3N3CCOCC3)n2)cc1", "activity, negative = inhibition": "inactive: 7.47%"},
      {"smiles": "COC(=O)COc1ccc(-c2nnc(Nc3ccc(O)cc3)c3ccccc23)cc1", "Potency": "inconclusive: 5.62 µM [inhibitor, single point]"},
      {"smiles": "Cc1cccc2cc(CN(C(=O)c3cccc([N+](=O)[O-])c3)C(C)C)c(=O)[nH]c12", "Potency": "inconclusive: 0.112 µM [inhibitor, full curve, poor fit]"},
      {"smiles": "C/C(=N\\Nc1cc(C)nc(-c2ccccc2O)n1)c1ccccc1O", "activity, negative = inhibition": "inactive: -10.3%"},
      {"smiles": "Cc1cccc(CSc2nnc(CCNC(=O)OC(C)(C)C)o2)c1", "activity, negative = inhibition": "inactive: -13%"},
      {"smiles": "CN(C)CC(CCC(CN(C)C)C(=O)c1ccccc1)C(=O)c1ccccc1", "note": "(stereo unspecified)", "Potency": "active: 6.31 µM"},
      {"smiles": "CCc1cccc(CC)c1NC(=O)CCCSc1nc2ccccc2s1", "Potency": "inconclusive: 35.5 µM [inhibitor, single point]"},
      {"smiles": "OC(CNC1CCCCCC1)COc1cccc2ccccc12", "note": "(stereo unspecified)", "Potency": "inconclusive: 35.5 µM [inhibitor, single point]"},
      {"smiles": "COc1ccc(-c2cc(C)no2)cc1S(=O)(=O)NCCCN1CCN(c2ccccc2)CC1", "Potency": "inconclusive: 8.91 µM [inhibitor, partial curve, poor fit]"},
      {"smiles": "O=[N+]([O-])c1nn(-c2ccccc2)n(O)c1=NC1CCN(Cc2ccccc2)CC1", "Potency": "inconclusive: 25.1 µM [inhibitor, single point]"},
      {"smiles": "Cc1ccc(N(CC(=O)N2CCN(c3cc(C)ccc3C)CC2)S(=O)(=O)c2c(C)nn(C)c2C)cc1", "Potency": "inconclusive: 20 µM [inhibitor, partial curve, poor fit]"},
      {"smiles": "Cc1cc(C)c2nc(SCC(=O)N3CC(=O)Nc4ccccc43)c(C#N)cc2c1", "Potency": "inconclusive: 1.26 µM [inhibitor, full curve]"},
      {"smiles": "CCC/C=C1/CCCOC(C(=O)NCc2ccc(S(C)(=O)=O)cc2)(C(F)(F)F)C1", "note": "(stereo unspecified)", "Potency": "inconclusive: 35.5 µM [inhibitor, single point] and inconclusive: 6.31 µM [inhibitor, full curve, poor fit]"},
      {"smiles": "CSC(=S)NCc1cccnc1", "Potency": "inconclusive: 10 µM [inhibitor, partial curve, poor fit]"},
      {"smiles": "Cc1c(C(=O)Nc2ccccc2)sc2nc(-c3ccccc3)cn12", "activity, negative = inhibition": "inactive: 4.37%"},
      {"smiles": "COCc1cc(=O)n2[nH]c(-c3ccccc3)cc2n1", "activity, negative = inhibition": "inactive: -17.1%"},
      {"smiles": "CCc1ccc(-c2nc(CS(=O)CC(=O)NCCc3ccc(C)cc3)c(C)o2)cc1", "note": "(stereo unspecified)", "Potency": "inconclusive: 22.4 µM [inhibitor, single point]"},
      {"smiles": "O=C(c1ccco1)N1CCCN(Cc2nc(-c3cccs3)no2)CC1", "activity, negative = inhibition": "inactive: 0.889%"},
      {"smiles": "N#Cc1cccc(-c2csc(C(O)(c3ccccc3)C(F)(F)F)n2)c1", "note": "(stereo unspecified)", "Potency": "inconclusive: 35.5 µM [inhibitor, single point]"},
      {"smiles": "Oc1ccc(N=Nc2nccs2)c(O)c1", "Potency": "inconclusive: 35.5 µM [inhibitor, single point]"},
      {"smiles": "Cc1cc(N)n(Cc2ccc(Cl)cc2)n1", "activity, negative = inhibition": "inactive: -3.85%"},
      {"smiles": "COc1cc(C=CC(=O)c2ccccc2)cc(OC)c1OC", "Potency": "active: 10 µM"},
      {"smiles": "O=[N+]([O-])c1ccccc1CNCCCCCO", "activity, negative = inhibition": "inactive: 0.343%"},
      {"smiles": "CC1SCC(=NOCc2ccccc2)CS1", "note": "(stereo unspecified)", "Potency": "inconclusive: 6.31 µM [inhibitor, single point]"},
      {"smiles": "COc1cccc(-c2c(C#N)c(N)nc3c2c(C)nn3-c2ccccc2)c1O", "activity, negative = inhibition": "inactive: 1.19%"},
      {"smiles": "COc1ccc(C)cc1NC(=O)CN1CCN(S(=O)(=O)c2ccc3ccccc3c2)CC1", "Potency": "inconclusive: 6.31 µM [inhibitor, single point]"},
      {"smiles": "C[C@H](O)[C@@H]1C(=O)N2CCc3ccc(-c4ccccc4)cc3[C@@H]2C[C@@H]1N(C)C(=S)Nc1ccc(F)cc1", "Potency": "inconclusive: 17.8 µM [inhibitor, single point]"},
      {"smiles": "CCOC(=O)c1cnc2ccc(C(=O)OC)cc2c1NCCN1CCOCC1", "activity, negative = inhibition": "inactive: -3.28%"},
      {"smiles": "COC(=O)[C@H](Cc1ccccc1)NC(=O)/C=C/[C@H]1O[C@@H](n2ccc(=O)[nH]c2=O)[C@H](O)[C@@H]1O", "activity, negative = inhibition": "inactive: -0.524%"},
      {"smiles": "CCOc1ccc(-c2cccc(NS(=O)(=O)c3ccc(C)s3)c2)nn1", "activity, negative = inhibition": "inactive: -15.3%"},
      {"smiles": "CCC(=NCc1ccccc1)c1c(C(F)(F)F)[nH]n(-c2nc3ccccc3s2)c1=O", "Potency": "inconclusive: 6.31 µM [inhibitor, single point]"},
      {"smiles": "Cc1ccc(NC(=O)NCCN2CCCCC2)cc1", "Potency": "inconclusive: 3.16 µM [inhibitor, partial curve, poor fit]"},
      {"smiles": "Cc1nnc(Cc2ccccc2)c2n[nH]c(C)c12", "activity, negative = inhibition": "inactive: -4.4%"},
      {"smiles": "COc1ccccc1CCNC(=O)Cc1c(C)c2cc(Cl)c(O)cc2oc1=O", "activity, negative = inhibition": "inactive: 1.53%"},
      {"smiles": "CCCCn1c(NC(=O)c2ccccc2)nc2ccccc21", "Potency": "inconclusive: 22.4 µM [inhibitor, single point]"},
      {"smiles": "CCCCOc1ccccc1C1CC(=O)Nc2ccc3ccccc3c21", "note": "(stereo unspecified)", "Potency": "inconclusive: 22.4 µM [inhibitor, single point]"},
      {"smiles": "CC(C)c1ccc(S(=O)(=O)N2CCN(Cc3cccc(F)c3)CC2)cc1", "activity, negative = inhibition": "inactive: -28.7%"},
      {"smiles": "CCCc1cnc2c(c1SCC(=O)NCc1ccc(C)cc1)c(=O)n(C)c(=O)n2C", "activity, negative = inhibition": "inactive: 0.405%"},
      {"smiles": "CCOC(=O)c1ccc(N2C(=O)c3n[nH]c(-c4ccco4)c3C2c2ccc(C(=O)OC)cc2)cc1", "note": "(stereo unspecified)", "Potency": "inconclusive: 2 µM [inhibitor, full curve, poor fit]"},
      {"smiles": "O=C(c1ccc2c(c1)N(Cc1ccc(Cl)cc1)C(=O)c1ccccc1S2(=O)=O)N1CCCC1", "Potency": "inconclusive: 35.5 µM [inhibitor, single point]"},
      {"smiles": "Cc1ccc(O)c(C(=O)/C=C/c2ccc3c(c2)OCCCO3)c1", "Potency": "inconclusive: 35.5 µM [inhibitor, single point]"},
      {"smiles": "O=C(NNc1ccccc1Cl)C(O)(c1cccc(C(F)(F)F)c1)c1cccc(C(F)(F)F)c1", "Potency": "active: 15.8 µM"},
      {"smiles": "CCN(CC)CCNC(=O)c1ccc(NC(=O)c2cn(-c3ccc(F)cc3)nc2-c2cccc(OC)c2)cc1", "Potency": "inconclusive: 35.5 µM [inhibitor, single point]"},
      {"smiles": "Cc1ccc(S(=O)(=O)N2CCN(C(=O)c3ccc(N4CCC(C)CC4)c([N+](=O)[O-])c3)CC2)cc1", "activity, negative = inhibition": "inactive: -10.9%"},
      {"smiles": "NC(=O)c1c(N)sc2c1CCCC2", "activity, negative = inhibition": "inactive: -1.26%"},
      {"smiles": "CCC(=O)N1Cc2ccccc2-c2ccccc2C1=O", "Potency": "inconclusive: 6.31 µM [inhibitor, single point]"},
      {"smiles": "O=[N+]([O-])c1ccc(O)c(Nc2c([N+](=O)[O-])ccc3nonc23)c1", "Potency": "inconclusive: 17.8 µM [inhibitor, single point]"},
      {"smiles": "Cc1cc(C)cc(NC(=S)Nc2ccc3cn[nH]c3c2)c1", "activity, negative = inhibition": "inactive: -3.11%"},
      {"smiles": "Cc1cc(C)cc(OCC(=O)Nc2cccc3cccnc23)c1", "activity, negative = inhibition": "inactive: -1.37%"},
      {"smiles": "Cc1c(C(=O)N2CCN(S(C)(=O)=O)CC2)oc2ccccc12", "Potency": "inconclusive: 35.5 µM [inhibitor, partial curve, poor fit]"},
      {"smiles": "O=S(=O)(c1ccccc1)c1cnn(-c2ccccc2)c1-c1ccc(F)cc1", "Potency": "inconclusive: 28.2 µM [inhibitor, single point]"}
    ]}
  ]
}
